{"source": "PubChem BioAssay AID485281", "about": "(National Center for Advancing Translational Sciences (NCATS), 2010)", "note": "Among all 350,000 compounds or so, about 260 (0.074%) were called active. Inconclusive results, whose numbers are uncertain, are shown with a selection of clear calls. Calls come from the whole dose curve; as a rule, active = well fitted inhibition curve with a large enough effect; inconclusive = small, poorly fitted or top-dose-only effect; inactive = no such curve, though single readings can be large or run the other way. Potencies beside an inconclusive call are fits to weak or partial responses and may not hold up. Potency is the fitted concentration of half-maximal effect; tags give direction and shape of the fitted curve.", "data": [{"target": "Ferritin light chain (Equus caballus) (UniProt P02791)", "sequence (P02791 whole entry, looked up)": "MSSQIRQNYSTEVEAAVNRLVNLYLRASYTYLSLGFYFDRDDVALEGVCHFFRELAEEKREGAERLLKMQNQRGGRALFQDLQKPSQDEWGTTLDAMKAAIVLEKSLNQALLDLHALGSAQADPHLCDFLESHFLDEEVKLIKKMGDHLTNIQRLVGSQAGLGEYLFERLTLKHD", "assay": "qHTS Assay for Identification of Novel General Anesthetics; note: nearly all actives have a fitted effect of over 20% in size", "conditions": "apoferritin/1-aminoanthracene competitive binding, fluorescence; series mostly up to 77.5 µM", "method_in_brief": "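Read-out: endpoint 1-AMA fluorescence, excitation 380 nm and emission 535 nm, after compounds sit 10 min at room temperature with 10 uM horse-spleen apoferritin in 50% saturated 1-AMA/PBS. Values come from four-parameter Hill fits.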", "values": [{"smiles": "COc1ccc([C@@H]2CC(=O)c3c(O)cc(O[C@@H]4O[C@H](CO)[C@@H](O)[C@H](O)[C@H]4OC4O[C@@H](C)[C@H](O)[C@@H](O)[C@H]4O)cc3O2)cc1O", "note": "(stereo not given in full)", "Potency": "inactive"}, {"smiles": "Cn1nc(C(F)(F)F)c(-c2cccc(C(F)(F)F)c2)c1NC(=O)CSCC(=O)O", "Potency": "inactive"}, {"smiles": "O=C(NCCc1ccccc1)C(=O)c1cn(CC(=O)N2CCCC2)c2ccccc12", "Potency": "inconclusive: 31.6 µM [inhibitor, partial curve]"}, {"smiles": "Cc1cccc(NC(=O)CN2CCSc3ccccc32)c1", "Potency": "inconclusive: 35.5 µM [inhibitor, partial curve]"}, {"smiles": "Cc1cccc(C)c1OCCNC(=O)c1ccc2ccccc2n1", "Potency": "inconclusive: 22.4 µM [inhibitor, partial curve]"}, {"smiles": "COc1ccc(CC(=O)Nc2nc(C(C)(C)C)cs2)cc1", "Potency": "inactive"}, {"smiles": "O=C(Nc1cc(C(F)(F)F)cc(C(F)(F)F)c1)c1cc(Cl)ccc1O", "Potency": "inactive"}, {"smiles": "Cc1ccc(S(=O)(=O)NCc2ccccc2)cc1C(=O)N(C)Cc1ccccc1F", "Potency": "inactive"}, {"smiles": "Cc1[nH]c2ccccc2c1CN1CCN(c2ccccn2)CC1", "Potency": "inactive"}, {"smiles": "Oc1c(C(Nc2nc3ccccc3s2)c2ccco2)ccc2cccnc12", "note": "(stereo not given)", "Potency": "inactive"}, {"smiles": "O=C(c1cc(COc2ccc(F)cc2Cl)on1)N1CCCC(OCc2cccnc2)C1", "note": "(stereo not given)", "Potency": "inconclusive: 28.2 µM [inhibitor, partial curve]"}, {"smiles": "O=[N+]([O-])c1nn(-c2ccc3c(c2)OCCO3)n(O)c1=Nc1ccc(Cl)cc1", "Potency": "inconclusive: 14.1 µM [inhibitor, partial curve]"}, {"smiles": "O=C(CN1CCCc2ccccc21)NCc1ccc2c(c1)OCO2", "Potency": "inactive"}, {"smiles": "C=CCn1c(C)cc(C(=O)CN2C(=O)c3ccccc3C2=O)c1C", "Potency": "inconclusive: 14.1 µM [inhibitor, partial curve]"}, {"smiles": "O=C1c2ccsc2SCCN1Cc1ccccc1", "Potency": "inconclusive: 12.6 µM [inhibitor, partial curve]"}, {"smiles": "Cc1ccc(C(=O)O)cc1NC(=S)NC(=O)c1ccc(-c2ccccc2)cc1", "Potency": "inactive"}, {"smiles": "CCN(CC)S(=O)(=O)c1ccc(C(=O)NC2=C(C(=O)OC)SCC2)cc1", "Potency": "inconclusive: 50.1 µM [inhibitor, single point]"}, {"smiles": "CCN(CC)c1ccc(C(=O)OCc2cc(=O)oc3cc(O)ccc23)cc1", "Potency": "inconclusive: 39.8 µM [inhibitor, partial curve]"}, {"smiles": "COc1ccc(NC(=O)c2cc(S(=O)(=O)NCCC3=CCCCC3)ccc2F)cc1", "Potency": "inconclusive: 10 µM [inhibitor, partial curve]"}, {"smiles": "C=CCSC(=C(C#N)C#N)c1cc2c([nH]1)CCCC2", "Potency": "inconclusive: 31.6 µM [inhibitor, partial curve]"}, {"smiles": "COc1ccccc1NC(=O)Cn1nnc(C(=O)NCCc2ccccc2)c1N", "Potency": "inconclusive: 3.55 µM [inhibitor, full curve]"}, {"smiles": "COc1ccc(NC(=O)CCl)cn1", "Potency": "inactive"}, {"smiles": "COc1ccc(-c2cc(C(=O)N3CCCc4ccccc43)no2)cc1OC", "Potency": "inactive"}, {"smiles": "CCN(CC)C(=O)c1sc2c(c1C)c(=O)n(-c1ccc(C)c(C)c1)c(=O)n2Cc1cccc(Cl)c1", "Potency": "inactive"}, {"smiles": "COCC1CCCN(C(=O)c2ccc3oc(Cc4ccc(Cl)cc4)nc3c2)C1", "note": "(stereo not given)", "Potency": "inconclusive: 31.6 µM [inhibitor, partial curve]"}, {"smiles": "CCCc1nc(SCC(=O)c2ccc(OC)cc2)c2ccccc2n1", "Potency": "inconclusive: 31.6 µM [inhibitor, partial curve]"}, {"smiles": "CC(C)c1ccc(NC(=O)c2ccc3c(c2)C(=O)N(Cc2cccnc2)C3=O)cc1", "Potency": "inconclusive: 7.08 µM [inhibitor, full curve, poor fit]"}, {"smiles": "CC(=O)N1CCc2cc(CNS(=O)(=O)c3ccc(C(C)(C)C)cc3)ccc21", "Potency": "inconclusive: 50.1 µM [inhibitor, single point]"}, {"smiles": "CCc1ccccc1N(C)C(=O)c1nn(C)c2c1CSc1ccccc1-2", "Potency": "inactive"}, {"smiles": "O=C(CN1c2ccccc2Sc2ccccc21)NNC(=S)Nc1ccc(Cl)cc1", "Potency": "inactive"}, {"smiles": "O=C(Nc1ccc(-c2nc3ccccc3[nH]2)cc1)c1ccccc1NS(=O)(=O)c1ccc(F)cc1", "Potency": "inactive"}, {"smiles": "Cc1cccc(NS(=O)(=O)c2cc(C(=O)OCC(=O)Nc3cc(C)on3)ccc2C)c1", "Potency": "inconclusive: 17.8 µM [inhibitor, partial curve]"}, {"smiles": "COc1cc(/C=N/NC(=O)c2ccc(CN(C)S(=O)(=O)c3ccc(C)cc3)cc2)ccc1O", "Potency": "inactive"}, {"smiles": "NNC(=O)c1sc2nc(N3CCOCC3)c3c(c2c1N)CCCC3", "Potency": "inactive"}, {"smiles": "COC(=O)c1ccc2c(c1)N(Cc1nc(-c3cccc(C)c3)oc1C)C(=O)C1CCCN21", "note": "(stereo not given)", "Potency": "inconclusive: 35.5 µM [inhibitor, single point]"}, {"smiles": "CC1CCN(c2ccc(C(=O)NCc3cccs3)cn2)CC1", "Potency": "inconclusive: 25.1 µM [inhibitor, partial curve]"}, {"smiles": "CC1=NN(C(=O)COc2ccc(C)c(C)c2)C(O)(c2ccc(Cl)cc2)C1", "note": "(stereo not given)", "Potency": "inconclusive: 17.8 µM [inhibitor, partial curve]"}, {"smiles": "O=C(CCN1CCN(c2ccccc2)CC1)Nc1ccccc1", "Potency": "inactive"}, {"smiles": "Cc1cccc(NC(=O)CCCN2C(=O)c3ccccc3C2=O)n1", "Potency": "inactive"}, {"smiles": "O=C(NC(=S)NCc1ccccc1)c1ccccc1F", "Potency": "inconclusive: 28.2 µM [inhibitor, partial curve]"}, {"smiles": "Cc1cc(C)nc(SCC(=O)Nc2ccnc3ccccc23)n1", "Potency": "inactive"}, {"smiles": "CSc1ccc(CNc2ccccc2)cc1", "Potency": "inconclusive: 17.8 µM [inhibitor, partial curve]"}, {"smiles": "Cc1ccc(OCCn2c(-c3ccc(Br)cc3)nc3ccccc3c2=O)cc1C", "Potency": "inactive"}, {"smiles": "CCCCCn1nc(C(=O)OCC(=O)c2c(N)n(C)c(=O)n(C)c2=O)c2ccccc2c1=O", "Potency": "inactive"}, {"smiles": "O=C(CN1C(=O)/C(=C/c2cccc(Br)c2)SC1=S)Nc1cccnc1", "Potency": "inconclusive: 5.01 µM [inhibitor, full curve]"}, {"smiles": "CC(C)C(=O)N1CCN(c2ccc(NC(=O)c3cccs3)cc2Cl)CC1", "Potency": "inconclusive: 20 µM [inhibitor, partial curve]"}, {"smiles": "CCCn1nc([N+](=O)[O-])c(C(C#N)c2nc3ccccc3s2)c(Cl)c1=O", "note": "(stereo not given)", "Potency": "inconclusive: 31.6 µM [inhibitor, partial curve]"}, {"smiles": "C=C(C)C(O)/C=C/c1ccc(Br)cc1", "note": "(stereo not given)", "Potency": "inconclusive: 7.94 µM [inhibitor, single point]"}, {"smiles": "CCN1C(=O)CC(C(=O)Nc2ccc(F)cc2)SC1=Nc1cccc(OC)c1", "note": "(stereo not given)", "Potency": "inconclusive: 39.8 µM [inhibitor, single point]"}, {"smiles": "O=C(Nc1ncnc2sc3c(c12)CCCCC3)c1ccccc1", "Potency": "inconclusive: 31.6 µM [inhibitor, partial curve]"}, {"smiles": "O=C(CSc1nc2ccccc2[nH]1)Nc1ccc2c(c1)OCCO2", "Potency": "inconclusive: 11.2 µM [inhibitor, partial curve]"}, {"smiles": "Cc1noc(C)c1C(=O)OCC(=O)NC(=O)NC12CC3CC(CC(C3)C1)C2", "Potency": "inconclusive: 11.2 µM [inhibitor, partial curve]"}, {"smiles": "CCOC(=O)c1c(C)oc2ncnc(Nc3cc(Cl)ccc3OC)c12", "Potency": "inconclusive: 6.31 µM [inhibitor, single point]"}, {"smiles": "O=C(CCCN1C(=O)/C(=C\\c2ccccc2)SC1=S)Nc1ccc(O)cc1", "Potency": "inconclusive: 25.1 µM [inhibitor, partial curve]"}, {"smiles": "CC1CCCC2(C1)NC(=S)c1c(sc3c1CCCC3)N2", "note": "(stereo not given)", "Potency": "inconclusive: 35.5 µM [inhibitor, partial curve]"}, {"smiles": "CC(C)C(=O)Nc1cccc(C(=O)Nc2nnc(CC(C)(C)C)s2)c1", "Potency": "inconclusive: 35.5 µM [inhibitor, partial curve]"}, {"smiles": "O=C(CSc1nc2ccccc2n1CCc1ccccc1)c1ccc(O)c(O)c1", "Potency": "inconclusive: 28.2 µM [inhibitor, partial curve]"}, {"smiles": "CCN(CCNC(=O)c1ccc(CSc2nc3ccncc3[nH]2)cc1)c1ccccc1", "Potency": "inconclusive: 28.2 µM [inhibitor, single point]"}, {"smiles": "COc1ccc(NCC(=O)N/N=C2\\CCCC(C)C2)cc1", "note": "(stereo not given)", "Potency": "inconclusive: 56.2 µM [inhibitor, single point]"}, {"smiles": "COc1ccc(CC(=O)Nc2ccc(N3CCCCC3)cc2)cc1", "Potency": "inconclusive: 3.55 µM [inhibitor, full curve]"}, {"smiles": "CCN(CC)C(=O)c1cc2sc3ccccc3c2s1", "Potency": "inconclusive: 28.2 µM [inhibitor, partial curve]"}, {"smiles": "Cc1ccc(S(=O)(=O)NCC(=O)NCc2cc(=O)n(C)c(=O)n2C)cc1", "Potency": "inactive"}, {"smiles": "O=C(CN1C(=O)CCC1=O)NCC12CC3CC(CC(C3)C1)C2", "Potency": "inconclusive: 12.6 µM [inhibitor, partial curve]"}, {"smiles": "O=C(NCc1ccco1)c1cnn2c1NC(c1ccccc1)CC2C(F)(F)F", "note": "(stereo not given)", "Potency": "inconclusive: 35.5 µM [inhibitor, single point]"}, {"smiles": "Cc1ccc(C)c2[nH]c(=O)c(CN(Cc3ccc4c(c3)OCO4)Cc3nnnn3Cc3ccco3)cc12", "Potency": "inactive"}, {"smiles": "O=C(/C=C/c1cccc([N+](=O)[O-])c1)N1CCN(Cc2ccccc2)CC1", "Potency": "inconclusive: 39.8 µM [inhibitor, partial curve]"}, {"smiles": "CC1=CCC(COC(=O)Nc2ccccc2)CC1", "note": "(stereo not given)", "Potency": "inconclusive: 15.8 µM [inhibitor, partial curve]"}, {"smiles": "CC(C)(C)CC(C)(C)NC(=S)Nc1ccc(S(=O)(=O)N2CCOCC2)cc1", "Potency": "inconclusive: 39.8 µM [inhibitor, partial curve]"}, {"smiles": "C=CCn1c(O)c(N=NC(=S)Nc2ccccc2F)c2cc(S(=O)(=O)N3CCOCC3)ccc21", "Potency": "inconclusive: 31.6 µM [inhibitor, partial curve]"}, {"smiles": "O=C1COc2ccc(OCc3ccc(F)cc3)cc21", "Potency": "inconclusive: 31.6 µM [inhibitor, single point]"}]}]}
